Laboratory results published in PubChem BioAssay AID686978 (National Center for Advancing Translational Sciences (NCATS), 2013).
About 64,000 (15%) of roughly 420,000 compounds were called active. Inconclusive results, whose numbers are uncertain, are shown with a selection of clear calls. Calls come from the whole dose curve; as a rule, active = well fitted inhibition curve with a large enough effect; inconclusive = small, poorly fitted or top-dose-only effect; inactive = flat fitted curve, though single readings scatter. Potencies of inconclusive entries are left out as doubtful fits.

Experiment: qHTS for Inhibitors of human tyrosyl-DNA phosphodiesterase 1 (TDP1): qHTS in cells in absence of CPT; note: nearly all actives have a fitted effect of over 55% in size
Settings: DT40 Tdp1-/- hTDP1 cells, no CPT, ATP luminescence, 48 h; activity change, negative = growth inhibition: at 46.2 µM (top of the series) unless noted
Outline: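 Growth kinetics read by CellTiter-Glo luminescence after ≥48 hr at 37 °C. Cells: DT40 Tdp1-/- stably carrying human TDP1, 400 per well, compound exposure in the absence of CPT (DMSO vehicle).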
% is set by controls: 0 for no effect and ±100 for the full control effect; potency is the fitted concentration of half-maximal effect; tags give direction and shape of the fitted curve.

| Structure (SMILES) | Potency | activity change, negative = growth inhibition |
| --- | --- | --- |
| COc1ccccc1C1(CCN=Cc2ccc(N(C)C)cc2)CCOC(C)(C)C1 (stereo not given) | inactive | – |
| Cc1ccc(-c2nc3n(n2)C(c2ccccc2Cl)C=C(c2ccc(Cl)cc2)N3)cc1 (stereo not given) | inconclusive [inhibitor, partial curve] | – |
| Nc1ncc(-c2cc3ccccc3oc2=O)s1 | inactive | – |
| CN(c1ccc(OCC(=O)NC2CCCC2)cc1)S(=O)(=O)c1cccs1 | inconclusive [inhibitor, single point] | – |
| O=C(NCC(c1ccc2c(c1)OCO2)N1CCN(c2ccccc2)CC1)C(=O)Nc1ccc(F)cc1 (stereo not given) | inactive | – |
| O=c1cc(-c2ccc(O)c(O)c2)oc2ccccc12 | inconclusive [inhibitor, single point] | – |
| CC(NC(=O)C(=O)NN=C1CCC(C(C)(C)C)CC1)c1ccccc1 (stereo not given) | inactive | – |
| CCNS(=O)(=O)c1ccc(NC(=O)c2ccccc2OCC)cc1 | inconclusive [inhibitor, partial curve] | – |
| Cn1c(C=O)c(C#CC(C)(C)O)c2ccccc21 | inconclusive [inhibitor, partial curve, poor fit] | – |
| CCOCC(=O)NC1CCc2cc(OC(=O)COCC)c(OC)c(OC)c2-c2ccc(SC)c(=O)cc21 (stereo not given) | active: 0.146 µM | – |
| CCOc1ccc(C(=O)COc2ccc(NC(C)=O)cc2)cc1 | inconclusive [inhibitor, full curve] | – |
| O=C(O)c1cc(N(Cc2ccccc2O)Cc2cc(O)ccc2O)ccc1O | active: 20.6 µM | – |
| C#CCNC(=O)C[C@@H]1C[C@@]2(C(=O)OC)CCCCC=C2N(Cc2ccco2)C1=O | inactive | – |
| CC(=O)Nc1cccc(C(=O)N/N=C/c2cccc(C)n2)c1 | inconclusive [inhibitor, single point] | – |
| O=C(Nc1ccn(CCCNCc2ccc3[nH]ccc3c2)c(=O)n1)OCc1ccccc1 | inconclusive [inhibitor, single point] | – |
| COc1ccccc1NS(=O)(=O)c1cccc(C(=O)NCC(c2ccco2)N2CCCC2)c1 (stereo not given) | inconclusive [inhibitor, single point] | – |
| CCS(=O)(=O)N1CC(=O)N(c2cccc(Cl)c2)C(C)(C(=O)NC2CCCCCC2)C1 (stereo not given) | inactive | – |
| Cc1cccc(NC(=O)/C(C#N)=C/c2cn(CC(=O)NCc3ccco3)c3ccccc23)c1 | inconclusive [inhibitor, single point] | – |
| Cn1c(=O)oc2cc(S(=O)(=O)Nc3ccccc3F)ccc21 | inactive | – |
| O=C(CCNC(=O)c1ccccc1Cl)Nc1ccccc1N1CCCC1 | inactive | – |
| CC(O)CNc1nc2c(c(=O)n(C)c(=O)n2C)n1Cc1cccc(Br)c1 (stereo not given) | active: 14.1 µM | – |
| CC(C)CCn1c(=O)c2cccnc2n(CC(=O)Nc2ccccc2)c1=O | inconclusive [inhibitor, single point] | – |
| O=C(Nc1ccc2c(c1)OCCO2)C(CCc1ccccc1)N1CCN(c2ccc(F)cc2)CC1 (stereo not given) | inconclusive [inhibitor, single point] | – |

| Structure (SMILES) | Potency | activity change, negative = growth inhibition |
| --- | --- | --- |
| CCOc1ccc(N=NC2C(=O)N(C(N)=S)N=C2C)cc1 (stereo not given) | inconclusive [inhibitor, full curve] | – |
| O=C(CN1C(=O)NC2(CCCC2)C1=O)OCCOc1ccccc1 | inactive | – |
| Cc1onc(-c2ccccc2)c1C(=O)Nc1ccc(S(=O)(=O)N2CCCCC2)cc1 | inconclusive [inhibitor, single point] | – |
| CCCCn1c(N)c(N(CC(C)C)C(=O)CSCC(=O)Nc2ccc(OC)cc2)c(=O)[nH]c1=O | inactive | – |
| Cc1oc(-c2ccc(C(=O)NCCC(C)C)cc2)nc1CS(=O)(=O)c1ccccc1 | inactive | – |
| COc1ccccc1CNc1ccc(Br)cn1 | inconclusive [inhibitor, single point] | – |
| Cc1nc(/N=C(\N)NC(=O)c2ccccc2)nc2ccccc12 | inconclusive [inhibitor, single point] | – |
| C[C@@H]1CN([C@@H](C)CO)C(=O)CCCn2nncc2CO[C@@H]1CN(C)C(=O)Nc1ccc(C(F)(F)F)cc1 | inactive | – |
| N#CCC(=O)N/N=C/c1ccc(OCC(=O)Nc2ccc(F)cc2)cc1 | inconclusive [inhibitor, single point] | – |
| Cc1ccc(Cn2c(SCC(C)C)nc3c2c(=O)[nH]c(=O)n3C)cc1 | inconclusive [inhibitor, single point] | – |
| O=C(NNC(=O)c1cc(-c2ccncc2)nc2ccccc12)Nc1ccc(F)cc1 | inconclusive [inhibitor, single point] | – |
| CCCCn1nc(C(=O)Nc2cccc(C(=O)NC3CC3)c2)c2ccccc2c1=O | inconclusive [inhibitor, partial curve] | – |
| COc1ccccc1N=C1NC(=O)/C(=C/c2ccc(N(C)C)cc2)S1 | active: 1.84 µM | – |
| c1ccc(-c2cnc(CSc3nnc4ccccn34)o2)cc1 | inactive | – |
| CC(C)C(=O)Nc1cccc(-c2nc3ccccc3o2)c1 | – | inconclusive: -26.8% [inhibitor] |
| O=C(NCc1cnc2ccccn12)C1CCC(=O)N(Cc2ccccc2F)C1 (stereo not given) | inactive | – |
| CCN(CC)CCNC(=O)c1ccc(NC(=O)c2cccc(S(=O)(=O)Nc3ccc(C)cc3)c2)cc1 | inconclusive [inhibitor, partial curve] | – |
| N#Cc1c[nH]n2c(NC3CCCC3)c(-c3cccc(Br)c3)nc12 | inconclusive [inhibitor, single point] | – |
| CS(=O)(=O)N(Cc1nc2sc3c(c2c(=O)[nH]1)CCCC3)C1CCCCC1 | active: 23.1 µM | – |
| CC(=O)Oc1ccc(C(=O)Nc2ccc(S(=O)(=O)NCC3CCCO3)cc2)cc1 (stereo not given) | inconclusive [inhibitor, single point] | – |
| CCc1cc(=O)n2[nH]c(C)c(-c3ccccc3OC)c2n1 | inconclusive [inhibitor, single point] | – |
| O=C(CN1C(=O)/C(=C/c2ccc(C(F)(F)F)cc2)Sc2ccccc21)NCCCN1CCOCC1 | inconclusive [inhibitor, single point] | – |
